{
  "source": "PubChem BioAssay (EPA / NIEHS)",
  "key": {"[1]": {"test": "ATG_PXRE_CIS: Attagene CIS-FACTORIAL HepG2 Assay for human Pregnane X Receptor Element (PXRE) (AID 2282957; active = hit-call score of the fitted dose curve at least 0.9, where 1 is the maximum; inactive = score below 0.9)", "settings": "HepG2 Attagene CIS-FACTORIAL PXRE reporter, mRNA; actives raise or lower the signal", "in_short": "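Multiplexed cis-reporter assay in transiently transfected human HepG2 cells; 24 h chemical exposure. Reporter transcripts quantified by RT-PCR with fluorescent labeling and capillary electrophoresis.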"}, "[2]": {"biological_target": "rat Mineralocorticoid Receptor (MR), Nr3c2 (gene 25672) (UniProt P22199)", "sequence (P22199 whole entry, looked up)": "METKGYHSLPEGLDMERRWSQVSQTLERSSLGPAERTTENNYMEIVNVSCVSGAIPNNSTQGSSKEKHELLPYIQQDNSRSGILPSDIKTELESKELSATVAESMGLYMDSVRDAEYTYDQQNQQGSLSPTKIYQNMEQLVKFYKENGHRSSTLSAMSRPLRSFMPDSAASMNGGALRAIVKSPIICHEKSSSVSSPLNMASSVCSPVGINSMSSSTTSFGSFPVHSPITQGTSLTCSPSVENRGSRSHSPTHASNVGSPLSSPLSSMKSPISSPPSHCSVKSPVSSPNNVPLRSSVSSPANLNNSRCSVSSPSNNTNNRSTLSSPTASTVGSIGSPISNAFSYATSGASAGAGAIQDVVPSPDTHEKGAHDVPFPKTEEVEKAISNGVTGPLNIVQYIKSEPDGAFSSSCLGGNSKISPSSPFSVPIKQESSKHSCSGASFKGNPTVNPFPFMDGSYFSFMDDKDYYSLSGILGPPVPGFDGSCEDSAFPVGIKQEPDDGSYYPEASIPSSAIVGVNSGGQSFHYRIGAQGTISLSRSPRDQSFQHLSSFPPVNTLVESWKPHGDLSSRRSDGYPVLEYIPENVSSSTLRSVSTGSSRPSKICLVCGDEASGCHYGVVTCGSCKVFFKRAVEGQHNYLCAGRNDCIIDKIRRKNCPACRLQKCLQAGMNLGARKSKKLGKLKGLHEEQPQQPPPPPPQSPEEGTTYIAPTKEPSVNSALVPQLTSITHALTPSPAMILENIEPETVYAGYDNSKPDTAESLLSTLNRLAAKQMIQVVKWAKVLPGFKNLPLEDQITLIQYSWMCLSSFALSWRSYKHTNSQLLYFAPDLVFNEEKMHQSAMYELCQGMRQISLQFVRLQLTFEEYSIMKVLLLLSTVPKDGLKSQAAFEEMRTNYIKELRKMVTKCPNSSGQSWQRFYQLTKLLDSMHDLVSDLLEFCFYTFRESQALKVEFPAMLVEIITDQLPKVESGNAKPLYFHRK", "test": "NVS_NR_rMR: NovaScreen (NVS) Nuclear Receptor Binding Assay for rat Mineralocorticoid Receptor (MR) (AID 2283355)", "method": "NVS_NR_rMR is a biochemical, single-readout assay that uses extracted gene-proteins from Adrenalectomized rat brain supernatant in a tissue-based cell-free assay. Measurements were taken 24 hours after chemical dosing in a 96-well plate.NVS_NR_rMR is one of one assay component(s) measured or calculated from the NVS_NR_rMR assay. It is designed to make measurements of radioligand binding, a form of binding reporter, as detected with scintillation counting signals by Lysate-based radiodetection technology.Data from the assay component NVS_NR_rMR was analyzed into 1 assay endpoint. This assay endpoint, NVS_NR_rMR, was analyzed in the positive analysis fitting direction relative to DMSO as the negative control and baseline of activity. […] Furthermore, this assay endpoint can be referred to as a primary readout, because the performed assay has only produced 1 assay endpoint. […]\nBinding assays used specific radioligands (tritiated, iodinated) with non-radioactive competitive displacement ligands in agonist or antagonist protocols (as indicated) and various reference compounds and inhibitors to titrate specific binding to receptors and transporters. Most enzyme assays (CYPs, kinases, phosphatases, proteases, HDACs) used recombinant protein and specific substrates (fluorescence mostly, some colorimetric and radioactive) and inhibitors, followed by a biochemical separation of substrate and product. […]"}, "[3]": {"biological_target": "Glucocorticoid receptor (Homo sapiens) (UniProt P04150)", "sequence (P04150 whole entry, looked up)": "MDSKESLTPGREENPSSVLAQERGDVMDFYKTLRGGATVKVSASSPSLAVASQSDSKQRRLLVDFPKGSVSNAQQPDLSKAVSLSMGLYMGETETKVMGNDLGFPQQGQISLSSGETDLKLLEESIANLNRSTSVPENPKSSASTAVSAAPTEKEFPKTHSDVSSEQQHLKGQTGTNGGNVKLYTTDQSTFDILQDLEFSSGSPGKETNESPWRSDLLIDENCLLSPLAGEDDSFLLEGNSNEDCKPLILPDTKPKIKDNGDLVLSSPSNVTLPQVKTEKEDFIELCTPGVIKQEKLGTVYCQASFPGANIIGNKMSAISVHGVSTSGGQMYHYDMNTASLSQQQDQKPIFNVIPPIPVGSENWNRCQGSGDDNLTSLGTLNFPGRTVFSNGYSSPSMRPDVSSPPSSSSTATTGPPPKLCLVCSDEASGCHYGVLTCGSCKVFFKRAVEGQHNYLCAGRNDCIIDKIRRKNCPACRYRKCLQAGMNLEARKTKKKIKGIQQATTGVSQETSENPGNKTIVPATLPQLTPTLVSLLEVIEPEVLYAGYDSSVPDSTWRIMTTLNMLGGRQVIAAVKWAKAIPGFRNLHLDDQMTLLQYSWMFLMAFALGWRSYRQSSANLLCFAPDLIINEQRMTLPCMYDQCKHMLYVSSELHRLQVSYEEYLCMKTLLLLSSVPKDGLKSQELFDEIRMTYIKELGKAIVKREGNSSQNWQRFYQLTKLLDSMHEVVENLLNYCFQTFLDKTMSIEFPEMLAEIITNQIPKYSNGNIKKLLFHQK", "test": "NVS_NR_hGR: NovaScreen (NVS) Nuclear Receptor Binding Assay for human Glucocorticoid Receptor (GR) (AID 2283363)", "in_short": "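Cell-free radioligand binding with extracted receptor protein, read by filter-based scintillation counting 16 hours after dosing. Loss of specific signal versus DMSO baseline was scored. Primary screen ran in duplicate at 25 uM; actives were followed up in concentration series.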"}, "[4]": {"test": "ATG_NRF2_ARE_CIS: Attagene CIS-FACTORIAL HepG2 Assay for human Nuclear Factor Erythroid 2 Related Factor 2 (NFR2) response to Antioxidant Response Elements (ARE) (AID 2282992; active = hit-call score of the fitted dose curve at least 0.9, where 1 is the maximum; inactive = score below 0.9)", "settings": "HepG2 Attagene ARE/NRF2 reporter, transcription factor activity; actives raise or lower the signal", "in_short": "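Cis-factorial assay: transfected HepG2 reporter library, 24 h dosing, mRNA readout via RT-PCR/CE; DMSO-referenced bidirectional analysis.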"}, "[5]": {"biological_target": "Nuclear receptor subfamily 1 group I member 2 (Homo sapiens) (UniProt O75469)", "sequence (O75469 whole entry, looked up, the tested form may be a part)": "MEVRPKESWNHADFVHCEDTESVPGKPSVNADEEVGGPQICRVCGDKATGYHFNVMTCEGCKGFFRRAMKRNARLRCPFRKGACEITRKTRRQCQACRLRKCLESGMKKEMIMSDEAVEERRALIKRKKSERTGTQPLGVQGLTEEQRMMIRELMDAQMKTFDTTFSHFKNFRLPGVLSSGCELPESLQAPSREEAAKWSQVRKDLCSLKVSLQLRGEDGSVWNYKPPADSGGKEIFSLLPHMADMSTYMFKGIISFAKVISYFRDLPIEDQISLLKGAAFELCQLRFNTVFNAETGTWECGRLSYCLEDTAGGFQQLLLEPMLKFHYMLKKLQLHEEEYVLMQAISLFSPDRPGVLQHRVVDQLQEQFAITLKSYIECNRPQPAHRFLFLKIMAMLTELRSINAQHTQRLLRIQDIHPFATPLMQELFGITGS", "test": "ATG_PXR_TRANS: Attagene TRANS-FACTORIAL HepG2 Assay for human Pregnane X Receptor (PXR) (AID 2283008)", "in_short": "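Fluorescence intensity of FAM-labelled, HpaI-digested reporter amplicons, separated by capillary electrophoresis, quantifies induction. HepG2 cells with PXR-Gal4 trans-reporter system were exposed 24 h; DMSO defines baseline.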"}, "[6]": {"test": "ATG_TCF_b_cat_CIS: Attagene CIS-FACTORIAL HepG2 Assay for human T-Cell-Factor with beta-catenin (TCF/b-cat) (AID 2282965; active = hit-call score of the fitted dose curve at least 0.9, where 1 is the maximum; inactive = score below 0.9)", "settings": "HepG2 TCF/beta-catenin cis-reporter transcription, actives raise or lower the signal", "in_short": "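HepG2 cells transiently transfected with multiple cis-promoter-regulated reporter transcription units, so endogenous transcription factor activity is measured. Reporter mRNA read 24 hours after dosing by RT-PCR, fluorescent labelling and capillary electrophoresis; bidirectional fitting against DMSO.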"}},
  "note": "Some entries of the source have several records that differ or are many. The list is limited to them. There may be further records. The records of an entry are repeated measurements in other runs, samples, wells, individuals or studies. Results filed as inconclusive are left out. Rule for the calls, unless noted: active = hit-call score of the fitted dose curve at least 0.9, where 1 is the maximum; inconclusive = response in the unintended direction; inactive = score below 0.9. More than one record can exist for a structure, and the calls need not agree.",
  "data": [
    {"smiles": "CC(=O)[C@@]1(O)CC[C@H]2[C@@H]3CCC4=CC(=O)CC[C@]4(C)[C@H]3CC[C@@]21C", "values": [
      {"measurement": "AC50", "setting": "[1]", "value": "active: 11.7, 27.3, 12.5, 4.74 µM [separate samples]"},
      {"measurement": "AC50", "setting": "[2]", "value": "active: 25.5, 48.4, 25.1, 128 nM [separate samples]"},
      {"measurement": "AC50", "setting": "[3]", "value": "active: 159, 59.4, 72.6, 13.9 nM [separate samples]"}
    ]},
    {"smiles": "CCN(CC)CCOc1ccc(C(=C(Cl)c2ccccc2)c2ccccc2)cc1", "values": [
      {"measurement": "AC50", "setting": "[4]", "value": "active: 2.37 µM, 618 nM, 3.68 µM, 2.52 µM [separate samples]"},
      {"measurement": "AC50", "setting": "[5]", "value": "active: 1.85 µM, 1.09 µM, 722 nM, 433 nM [separate samples]"},
      {"measurement": "AC50", "setting": "[3]", "value": "active: 6.06, 2.8, 1.84, 1.53 µM [separate samples]"}
    ]},
    {"smiles": "CC(=O)O[C@]1(C(C)=O)CC[C@H]2[C@@H]3C=C(Cl)C4=CC(=O)[C@@H]5C[C@@H]5[C@]4(C)[C@H]3CC[C@@]21C", "values": [
      {"measurement": "AC50", "setting": "[6]", "value": "active: 33.9, 137, 100, 51.8 µM [separate samples]"}
    ]}
  ]
}
